We go through 88 sequences from the supplement of paper PMC11417369.

The list shows a part of the results.

The assay has as its system PfSIP2 AP2 domain 1 (GST-tagged). Briefly: gcPBM binding intensity (ln(normalized median fluorescence intensity)); higher = stronger DNA binding. The essentials: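 Plasmodium falciparum DNA-binding domains carrying a GST tag were expressed in E. coli and applied for 1 h, at about 25 μg on average, to an Agilent 4 × 180k array. The array held primer-extended double-stranded 36-bp intergenic genomic probes together with negative controls, and binding took place in 1× PBS with 1% milk, 0.2 mg/ml BSA, 0.5% salmon testes DNA and 0.03% Triton X-100. An Alexa488 anti-GST antibody detected bound protein, and the array was scanned at 488 nm. Binding intensity is taken as the highest Masliner-normalised natural-log median intensity across replicate spots of either probe orientation.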
Regarding “TTGTTCTATATATATGCATGCACGTATGTTAAATTA [TGCATGCA_site659]”, the “gcPBM binding intensity (ln)” value amounted to 9.51.
As for “TCTCATATATTGAATTGTACATATGTTAAAATATAG [XGTACX_site6764]”, the figure is 7.03.
The same measure for “TATTAATTTTTATACGCATGTGTATAGTAATATATA [TGCATGCA_site1010]”: 6.81; for “TTTATTTATCTTTACGCACACACTTGCATGTACAAA [CACACA_site1118]”: 7.46.
“TACCTACCTTTACGGAGTACACAATAATAGTTATAA [XGTACX_site6593]”: the “gcPBM binding intensity (ln)” value was 7.32.
As for “ATATAAAAATAATAGAGTACAAAAAAAAAATGTATA [XGTACX_site7054]”, the figure is 7.01; as for “GATGATACGATTATCACACATTTATACTTTCTACAT [CACACA_site5669]”, 6.91; as for TGTATACATTATTAAGTGCAAGTAGGGAAAAAAAAA, 8.
As for “TAAACATATACACGTACATGCAACGGATTTTTTTTT [TGCATGCA_site70]”, the figure is 7.09.
Consider “CAAGAAAAGAAACACACACACATATATATATATATA [CACACA_site3881]”, for which the “gcPBM binding intensity (ln)” value is 9.12.
The same measure for “TTTTTACTATAAGGGGAAAAAAAAAAAAATAATATA [XGTACX_negctrl_site279]”: 6.62; for “ATATAACTTTTAAAAGCATGCAAATATTTACTCAAT [TGCATGCA_site396]”: 7.12; for “TATATATATATATGTGCACACATAATAAAAAAAAAA [CACACA_site3830]”: 9.64.
As for “ATATGATTAATTAAGTGTACGTATTTATAATTATAA [XGTACX_site5783]”, the figure is 7.13; as for “ATTACAATTTTAATAGTGCATTTTTATATATTTCTA [GTGCAC_site9918]”, 9.55; as for “GAAGACAATTATATGTGTACATATATATACATATAT [XGTACX_site4630]”, 7.2.
“AGTAGATATTATTATAGTACTTTTTATTTTATATTT [XGTACX_site1551]”: the “gcPBM binding intensity (ln)” value is 6.87.
As for “GGAATTCATATTAATTGTACATTTAAAGATAGATGA [XGTACX_site3279]”, the figure is 6.99; as for “AAAATTTATGGAAGGTGTACTGTTAATTATGTATAT [XGTACX_site6446]”, 6.96; as for “ATATTAAAGATATATACACACATATTTATAAATATA [CACACA_site7127]”, 7.13.
As for “TAATATGTGGACTTTACACACTTGTTTTAAAATTCT [CACACA_site4605]”, the figure is 6.76.
The same measure for “ATATTTTACATATTTGCACACATATATTTATATACA [CACACA_site855]”: 7.42.
As for “ATATATATATATATATGTACTTATTTATTTATTTAT [XGTACX_site4645]”, the “gcPBM binding intensity (ln)” value came out at 9.22.
As for “TATAAAATTATTAAACAAGAAAATTTTAGGTAATAC [TGCATGCA_negctrl_site568]”, the figure is 7.03; as for “ATAATATATTTTTGAACACACAATATATATATATAT [CACACA_site4124]”, 9.1; as for “ATATAAATATGACACACACACAAAAAAAATAAAGAC [CACACA_site6208]”, 7.97.
As for “TATAATATATTTTGATGTACAAATATATTATATATA [XGTACX_site8633]”, the “gcPBM binding intensity (ln)” value worked out at 7.04.
The same measure for “TTGATAAAACGTTATGCACACGTACGTGGGTATTTA [CACACA_site8445]”: 7.23; for “AGTATACACGAACACACACACACATATATAAATATA [CACACA_site6913]”: 7.04; for “TAAAGTATTACAACCACACACACACCCATATATTAT [CACACA_site4159]”: 7.09.
The same measure for “TAAGTGTATGTATATAAACACACATACATATATATA [CACACA_site8397]”: 7.19.
The same measure for “TAATTTAAAAATTCCTGTACTCAGTTTTTTCTATTT [XGTACX_site4961]”: 6.64.
Regarding “ATTTTTTTATACAATTTTATATATTAAATATTATAA [GTGCAC_negctrl_site86]”, the “gcPBM binding intensity (ln)” value is 6.95.
Consider “TGTATTTTTAACATATGTACGAATAGCACGTGTTAT [XGTACX_site3640]”, for which the “gcPBM binding intensity (ln)” value was 7.14.
For “TAAAAATGGGAGGGGTGTACTACACAATAAAATTAT [XGTACX_site5641]”, the “gcPBM binding intensity (ln)” value came to 7.88.
The same measure for “TATTTTATATGATAGGTGCATTTTTTTTTTTTTTTT [GTGCAC_site9757]”: 10.8; for “ATTTTTTCAAAATGGAAAACTTATCAGTGAAAAAAA [CACACA_negctrl_site1087]”: 6.87.
Regarding “CTTGACCCCCTTTGTTGTACTGACATTTGTGAGCTT [XGTACX_site591]”, the “gcPBM binding intensity (ln)” value turned out to be 7.34.
As for “ATATGTATTGGAGTGTGTACATATATATATATTTAT [XGTACX_site5633]”, the figure is 7.34; as for “TTAATAATGTTTTATTGTACTTTTTTGTGGGTTTAT [XGTACX_site5670]”, 7; as for “GTGCTACATCATATGTGTACATATACCAAACTGTAT [XGTACX_site8233]”, 7.52.
As for “ATATACATTCAAGGCTGTACACTATATTTTTTTTTT [XGTACX_site6514]”, the figure is 7.03.
As for “TTTGTGTAAAGAATCAGTACATATAATATATATATA [XGTACX_site1972]”, the figure is 8.28; as for “TTTGTTGACAGACACACACACATACATATATATATA [CACACA_site2288]”, 8.9; as for TATAATAATATAATGGTGCATGTATATAACCATATA, 10.7.
With “AAATAAATATAAATAAATAAATAAATAAATATATAT [CACACA_negctrl_site827]”, the “gcPBM binding intensity (ln)” value came out at 6.93.
As for “TTAATAATTCTTAAAAGTACATAACTTTTTTTTTTT [XGTACX_site751]”, the figure is 6.85; as for “GCTCTTTTGTTATGGTGTACCCTCCATGTAACATAA [XGTACX_site91]”, 7.45.
“TCTTACGGATTCATTGTGCACATATATATATATATA [GTGCAC_site9896]”: the “gcPBM binding intensity (ln)” value was determined as 9.46.
As for “TTTTAAAAACGGCATGCATGTAATACATGGAAGGAA [TGCATGCA_site480]”, the figure is 7.46.
In the case of “TATATATAATTCATACATTTTAAATATATTTATTTA [CACACA_negctrl_site840]”, the “gcPBM binding intensity (ln)” value is 7.01.
With “TTTAAAAAAATTCATGCACACGAAATAAAAAGCACC [CACACA_site8214]”, the “gcPBM binding intensity (ln)” value worked out at 8.86.
As for “TCTTTTATGCACATTGAGTAAACAACATATTTTTAA [TGCATGCA_negctrl_site561]”, the figure is 7.39.
As for “TTTTTTATTAAAAGTAGTACACATGAAAAAAAAAAA [XGTACX_site5524]”, the figure is 7.66; as for “ATTTTTATAGAAATATGTACACAATATGTATATATT [XGTACX_site7993]”, 6.95.
As for “TTAATATAGATATAACCACACACATACATCTAATTC [CACACA_site8519]”, the figure is 6.92.
For “TAGAAGTACATATATGCATGTTAATTTTAAAGGAGG [TGCATGCA_site538]”, the “gcPBM binding intensity (ln)” value worked out at 7.14.
For “ATATATATATAGTGTTGTACATTTAAAAATAATATA [XGTACX_site2627]”, the “gcPBM binding intensity (ln)” value was determined as 9.21.
As to “ATTAAAAATATTAGTTGTACTTTATATTTTCATATA [XGTACX_site3614]”, the “gcPBM binding intensity (ln)” value was 6.87.
The same measure for “AATCAAAATAATTTAACACACAATTTTAATACTGTT [CACACA_site2375]”: 6.82; for “AAATTCCATGAAAAAAGTACTAATTAATACAATATA [XGTACX_site2877]”: 6.96.
The same measure for “TTTAAGAATTAACGGGGTACAATTCTTAAATATATA [XGTACX_site669]”: 6.88; for “ATGTGATAGAAGTACACACACATATGTATTTATAAT [CACACA_site5075]”: 7.02.
The same measure for “TGTTTTATTTTTTTTGTGCACATACCTTTAGCATCA [GTGCAC_site9812]”: 8.95.
Regarding “TAATTATAATAAATATTCATATGTTCAAATATATAT [CACACA_negctrl_site151]”, the “gcPBM binding intensity (ln)” value stood at 6.96.
Consider “TATATATTTTTTTCAAGTACACATTACAGTTACATA [XGTACX_site2713]”, for which the “gcPBM binding intensity (ln)” value was 7.01.
As for “ATTCGATGTTTTAAATGTACACAAATTGAAGGAATA [XGTACX_site409]”, the figure is 7.6.
The same measure for “ATGTTTTCTCTTTCGGTGCATTGTTTTCTATACTTT [GTGCAC_site9483]”: 9.6.
The same measure for “TTTATATAATTTTAATGTACATATATATATATAAAT [XGTACX_site4381]”: 7.43; for “TTTTCTTACATGAGTGTACACACTTTTTTTCAGAAA [CACACA_site70]”: 7.18.
Turning to “TTCTTCACATACACTTCAAAATTTGATAAAACATTA [CACACA_negctrl_site472]”, the “gcPBM binding intensity (ln)” value amounted to 7.68.
As for “TAATAAATAAGATTCACACATATTTAAATGTTATGC [CACACA_site5275]”, the figure is 6.65; as for “TATCTATAATATTATACACACATATATGCATAATAT [CACACA_site6175]”, 7.34.
With TTATTTGAATAATGTTTGCACTTAGAGTATTTTATA, the “gcPBM binding intensity (ln)” value is 7.48.
In the case of “ATATATCATAAATAAATGAAAATATTTTCTATGTGT [CACACA_negctrl_site689]”, the “gcPBM binding intensity (ln)” value was 7.07.
With “GTATATAATTTTTTTTTTTTTTTCATTCTTTTCCTT [CACACA_negctrl_site1780]”, the “gcPBM binding intensity (ln)” value amounted to 6.89.
The same measure for “ATGAATTGACCATATTGTACATATTTAGGACTTACC [XGTACX_site8072]”: 7.16.
For “AAATATATGAAATATACACACTTCTTTGGTATTATT [CACACA_site4414]”, the “gcPBM binding intensity (ln)” value is 6.69.
On to “CAGAAATATTAATGCTGTACGGAATACATATATTTT [XGTACX_site539]”, for which the “gcPBM binding intensity (ln)” value is 6.83.
In the case of “ATTTTAATGGGACATGCATGGGACAAACTACAAATT [TGCATGCA_site853]”, the “gcPBM binding intensity (ln)” value amounted to 7.08.
On to “AGAATATTTATATGATGTACTTATATATATATATAT [XGTACX_site3021]”, for which the “gcPBM binding intensity (ln)” value is 9.17.
With “TATATATTAAAACACACACACATATATATATATATA [CACACA_site3787]”, the “gcPBM binding intensity (ln)” value was 9.06.
“TTTTTTCTTTTCTTTTTATTTTATTTTGTTTTATTT [CACACA_negctrl_site799]”: the “gcPBM binding intensity (ln)” value worked out at 6.69.
The same measure for “AATAAAAACTACATGTGTACATAATAAATACATATA [XGTACX_site755]”: 7.09.
The same measure for “TAAAAATATTTAAACTGTACTATTTTATGTTAAATG [XGTACX_site6620]”: 7.
As for “ATAATCCAAAAAAATCAAATAAAATAAAATAAAATA [CACACA_negctrl_site449]”, the figure is 6.75; as for “TGAACCAGATTTAGAAGTACTAAATATTACATACAT [XGTACX_site2437]”, 6.97.
On to “TGTTGCAAAACAAAAAAAAAAAAAAAAAATAATAAT [CACACA_negctrl_site1642]”, for which the “gcPBM binding intensity (ln)” value is 6.76.
